Usually AC50 stands for the midpoint of the concentration-response curve, whichever way the signal moves.

In PubChem BioAssay (NCATS) one finds AC50 data, which are given here for 8 molecules.

Test [1] is described as follows: qHTS drug screen for cell cycle checkpoint inhibitors in PARPi-resistant BRCA-mutant ovarian cancer cell lines. (AID 1963452). Particulars: PEO1/OlaR viability, CellTiter-Glo luminescence, 96 h. The gist of the method:
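PEO1, PEO4 and PEO1/OlaR ovarian cancer cells, 600 per well, exposed 96 h at 37C to a dilution series. Viability read by CellTiter-Glo luminescence, normalized to DMSO and empty wells; activity summarized as Z-AUC.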
A general note: Quantitative high-throughput screening tests each substance at several concentrations.

The nature of test [2]: NCATS anti-infectives library activity on the primary C. elegans qHTS viability assay (AID 1745855). Particulars: C. elegans worm area imaging, day 7, measured here: worm number. The gist of the method: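 Titration-based screen in worms: eggs hatched overnight in M9, L1 larvae fed TOP10 capsules in S medium with compound, incubated 21 °C for 7 days; fluorescent objects gated by size and intensity at days 0, 3 and 7.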

The mark [3] stands for this setting: measured here: PEO1 parental viability.

Some of the results follow. The main result of the screen is listed elsewhere. These columns were measured beside it and carry no call. For some of these results: The list favours compounds with an active or inconclusive main result. Potencies come from curve fits of mixed quality, noted in brackets.
Tags tell the direction and shape of the fitted curve.

Turning to `COC(=O)[C@@]12OC[C@]34[C@H]([C@@H](O)[C@@H]1O)[C@@]1(C)CC(=O)C(O)=C(C)[C@@H]1C[C@H]3OC(=O)[C@H](OC(=O)/C=C(\C)C(C)C)[C@@H]24`, the AC50 was 34.7 nM [falling, full curve] in test [1] (setting [3]) and 27.5 nM [falling, full curve] in test [1] (measured here: PEO4 viability).

On to `CC(=O)O[C@@]12CO[C@@H]1C[C@H](O)[C@@]1(C)C(=O)[C@H](O)C3=C(C)[C@@H](O)C[C@@](O)([C@@H](OC(=O)c4ccccc4)[C@H]21)C3(C)C`, for which the concentration at half-maximal activity (AC50) in test [1] (setting [3]) was 24500 nM [falling, single point].

Regarding `Cc1[nH]ncc1-c1cc2nc([C@@H]3CC4CCN3CC4)[nH]c(=O)c2s1`, the AC50 in test [1] (setting [3]) was 15500 nM [falling, partial curve]; in test [1] (measured here: PEO4 viability), 17400 nM [falling, single point].

On to `C[C@H](Nc1ncnc2nc[nH]c12)c1nc2ccc(F)cc2c(=O)n1-c1ccccc1`, for which the AC50 in test [1] (setting [3]) is 5490 nM [falling, full curve, poor fit].

In the case of `NC1=NC(=O)N2CC12` (stereo not drawn), the AC50 in test [1] (setting [3]) was 2750 nM [rising, partial curve, poor fit].

With `COc1ccc(C(=O)c2c(C)n(CCN3CCOCC3)c3ccccc23)cc1`, the AC50 in test [1] (setting [3]) is 15500 nM [falling, partial curve]; in test [1] (measured here: PEO4 viability), 7760 nM [falling, partial curve].

With `C=C(C)[C@@H]1CCC(C)=C[C@H]1c1c(O)cc(CCCCC)cc1O`, the half-maximal activity concentration (AC50) in test [1] (setting [3]) is 195 nM [falling, full curve].

As for `C[C@H]1CCC/C=C/C2C[C@H](O)C[C@H]2[C@H](O)/C=C/C(=O)O1` (stereo partly drawn), the AC50 is 8.2 nM [falling, full curve, poor fit] in test [2]; 245 nM [falling, full curve] in test [1] (setting [3]); 174 nM [falling, full curve] in test [1] (measured here: PEO4 viability).
